{"source": "PubChem BioAssay AID2546", "about": "(National Center for Advancing Translational Sciences (NCATS), 2010)", "note": "Hit rate of the full screen: of about 310,000 compounds, about 11,000 (3.5%) were called active. Calls follow the shape of the dose curve; as a rule, active = well fitted inhibition curve with a large enough effect; inconclusive = small, poorly fitted or top-dose-only effect, or effect the other way; inactive = flat fitted curve, though single readings scatter. Inconclusive results, whose numbers are uncertain, are shown. No potency is given beside an inconclusive call; the fits are too rough.", "data": [{"experiment": "VP16 counterscreen qHTS for inhibitors of ROR gamma transcriptional activity;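 also: Gal4-VP16 expression switched on by copper sulfate through the metallothionein promoter; potency is read from the fitted curve at half-maximal effect; nearly all actives have a fitted effect of over 50% in size; tags tell the direction and shape of the fitted curve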", "settings": "Drosophila S2 Gal4-VP16 UAS-luciferase, luminescence, 20 h; series mostly up to 53.6 µM", "source_text": "NIH Molecular Libraries Probe Production Network [MLPCN]\nNIH Chemical Genomics Center [NCGC]\nAssay Provider: Dan Littman, New York University\nThe retinoic acid-related orphan receptor (ROR) gamma is a transcription factor that has a central role in the differentiation of Th17 cells, a subset of T helper cells that secrete the inflammatory cytokines IL-17, IL-17F, and IL-22. Th17 cells have been implicated in graft versus host disease, autoimmune disease and asthma. ROR gamma is induced in naive T helper cells in the presence of TGF-beta combined with IL-6, IL-21, or IL-23, and thereafter directs the expression of the Th17 lineage cytokines. […] Small molecule inhibitors that inhibit components common to the RORgt and VP16 assays, such as the Gal4 DNA binding domain or the UAS luciferase reporter, will be active in both assays and thus scored as nonspecific.\nFor screening, 600 cells in 4 uL/well were dispensed into white solid 1536-well plates (Grenier) using a solenoid-based dispenser. […] After addition of 1.5 uL Photinus luciferase detection reagent, the plates were incubated 10 min at ambient temperature and then read by a ViewLux (Perkin Elmer) to detect luminescence.", "values": [{"molecule": "CCCOc1ccc(C2C(C(=O)c3cc4ccccc4o3)=C(O)C(=O)N2c2cc(C)on2)cc1", "note": "(configuration not stated)", "Potency": "inconclusive [inhibitor, single point]"}, {"molecule": "Cc1cc(N2C(=O)C(O)=C(C(=O)c3cc4ccccc4o3)C2c2cccc(Br)c2)no1", "note": "(configuration not stated)", "Potency": "inconclusive [inhibitor, single point]"}]}]}
